Source: PMC7757826
No constants are given. Whether binding was seen depends on the method and setting. Binding seen in cells or lysates may run through a third protein. Some entries that bind do so weakly or less than the wild type.

Chains of the proteins cited; added tags and fusions are not shown.
UniProt O14493: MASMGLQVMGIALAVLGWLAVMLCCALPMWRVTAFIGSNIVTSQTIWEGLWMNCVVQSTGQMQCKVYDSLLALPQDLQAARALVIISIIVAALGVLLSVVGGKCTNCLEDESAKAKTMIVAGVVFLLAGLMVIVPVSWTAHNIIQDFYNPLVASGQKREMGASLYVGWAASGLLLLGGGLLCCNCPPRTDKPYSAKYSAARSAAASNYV

T1: CD82 (Tspan-27) (human (endogenous in A2780, OVCAR-3, SKOV-3 and A2780cis cells)) (UniProt P27701)
T1 sequence: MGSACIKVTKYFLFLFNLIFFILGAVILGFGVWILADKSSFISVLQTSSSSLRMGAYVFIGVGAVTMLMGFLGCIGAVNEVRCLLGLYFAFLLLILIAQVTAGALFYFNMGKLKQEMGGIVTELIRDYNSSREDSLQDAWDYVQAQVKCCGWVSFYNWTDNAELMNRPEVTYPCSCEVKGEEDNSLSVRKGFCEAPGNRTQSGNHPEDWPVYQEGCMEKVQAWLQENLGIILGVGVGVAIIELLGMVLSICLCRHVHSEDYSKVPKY

T2: Epithelial cell adhesion molecule (EpCAM) (human (endogenous in A2780, OVCAR-3, SKOV-3 and A2780cis cells)) (UniProt P16422)
T2 sequence: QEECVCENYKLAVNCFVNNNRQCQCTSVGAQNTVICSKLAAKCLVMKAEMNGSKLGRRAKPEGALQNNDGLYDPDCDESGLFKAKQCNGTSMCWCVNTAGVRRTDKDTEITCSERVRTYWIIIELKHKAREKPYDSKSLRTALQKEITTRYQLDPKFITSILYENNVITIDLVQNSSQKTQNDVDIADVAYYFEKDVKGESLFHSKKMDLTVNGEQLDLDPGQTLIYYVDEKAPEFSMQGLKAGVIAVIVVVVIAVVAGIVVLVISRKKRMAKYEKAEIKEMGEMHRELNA

T3: claudin-7 (human (endogenous in A2780, OVCAR-3, SKOV-3 and A2780cis cells)) (UniProt O95471)
T3 sequence: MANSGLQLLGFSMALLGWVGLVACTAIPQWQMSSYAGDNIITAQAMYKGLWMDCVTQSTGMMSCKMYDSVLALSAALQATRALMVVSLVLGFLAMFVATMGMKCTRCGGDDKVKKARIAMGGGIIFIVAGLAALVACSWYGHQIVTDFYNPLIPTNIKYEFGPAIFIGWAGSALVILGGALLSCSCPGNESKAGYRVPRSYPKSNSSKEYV


Assays:
[1] = target: T1, CD82 (Tspan-27) (human (endogenous in A2780, OVCAR-3, SKOV-3 and A2780cis cells)); test: condition: only cells treated with 50 μM 2-BP (palmitoylation inhibitor); co-IP; OVCAR-3 cells treated with the palmitoylation inhibitor 2-BP (50 μM, 20 h, 37 °C), RIPA buffer; anti-CD82 or anti-claudin-7 precipitates
[2] = target: T2, Epithelial cell adhesion molecule (EpCAM) (human (endogenous in A2780, OVCAR-3, SKOV-3 and A2780cis cells)); test: co-IP; A2780cis (cisplatin-resistant) cells lysed in 1% Triton X-100 buffer; lysates precipitated with antibodies to the studied molecules, western blot
[3] = target: T3, claudin-7 (human (endogenous in A2780, OVCAR-3, SKOV-3 and A2780cis cells)); test: cross-linking + co-IP; A2780 cells treated first with 2-BP and then with DSP or DTSSP; anti-CD82 or anti-claudin-7 precipitates
[4] = target: T3, claudin-7 (human (endogenous in A2780, OVCAR-3, SKOV-3 and A2780cis cells)); test: cross-linking + co-IP; SKOV-3 cells treated with DSP or DTSSP (1 mM, 30 min, 37 °C), claudin-7 precipitates also after 2-BP beforehand, lysed in RIPA buffer; anti-CD82 or anti-claudin-7 precipitates
[5] = target: T3, claudin-7 (human (endogenous in A2780, OVCAR-3, SKOV-3 and A2780cis cells)); test: cross-linking + co-IP; OVCAR-3 cells treated with DSP or DTSSP (1 mM, 30 min, 37 °C), with or without 2-BP beforehand, lysed in RIPA buffer; anti-CD82 or anti-claudin-7 precipitates
[6] = target: T3, claudin-7 (human (endogenous in A2780, OVCAR-3, SKOV-3 and A2780cis cells)); test: cross-linking + co-IP; A2780 cells treated with the membrane-impermeable cross-linker DTSSP (1 mM, 30 min, 37 °C), lysed in RIPA buffer; anti-CD82 or anti-claudin-7 precipitates
[7] = target: T1, CD82 (Tspan-27) (human (endogenous in A2780, OVCAR-3, SKOV-3 and A2780cis cells)); test: as above

| Molecule | binding [1] | binding [2] | binding [3] | binding [4] | binding [5] | binding [6] | binding [7] |
| --- | --- | --- | --- | --- | --- | --- | --- |
| claudin-4 (from UniProt O14493 1-209) | no binding | binds |  |  |  |  |  |
| Epithelial cell adhesion molecule (EpCAM) (protein, UniProt P16422 24-314) QEECVCENYKLAVNCFVNNNRQCQCTSVGAQNTVICSKLAAKCLVMKAEMNGSKLGRRAKPEGALQNNDGLYDPDCDESGLFKAKQCNGTSMCWCVNTAGVRRTDKDTEITCSERVRTYWIIIELKHKAREKPYDSKSLRTALQKEITTRYQLDPKFITSILYENNVITIDLVQNSSQKTQNDVDIADVAYYFEKDVKGESLFHSKKMDLTVNGEQLDLDPGQTLIYYVDEKAPEFSMQGLKAGVIAVIVVVVIAVVAGIVVLVISRKKRMAKYEKAEIKEMGEMHRELNA |  |  | binds | binds | binds | binds | binds |
